# Measurements from PubChem BioAssay AID1963576 (National Center for Advancing Translational Sciences (NCATS), 2024).
# About 60 (0.1%) of roughly 46,000 compounds were called active. Another 3% or so got no clear call; they are omitted. Calls follow the shape of the dose curve; as a rule, active = well fitted inhibition curve with a large enough effect; inconclusive = small, poorly fitted or top-dose-only effect; inactive = no such curve, though single readings can be large or run the other way. The list shows a part of the results.
# Test: Primary qHTS assay for Inhibitors of ovarian cancer metastasis using an organotypic tumor microenvironment (TME) model. Also: nearly all actives have a fitted effect of over 65% in size.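 As to Potency: count of GFP cancer cells still attached after washing and fixation.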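 As to activity change, negative = inhibition: plate controls were DMSO wells for no effect and tomatine positive control wells for full effect.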
# Settings: SKOV3ip1-GFP adhesion/invasion on 3D omental model, fluorescence; series mostly up to 45.8 µM; activity change, negative = inhibition: at the top concentration
# In short: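 Adhesion/invasion was scored as fixed GFP-labeled SKOV3ip1 cell counts (488/509 nm), normalized to DMSO and tomatine controls. Cancer cells in serum-free medium, with four compound doses (0.36-46 umol/L), sat 2 hr at RT then 16 hr at 37 C on a 48 hr fibroblast/mesothelial/ECM culture.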
# Potency is read from the fitted curve at half-maximal effect.
Structure (SMILES),outcome,"activity change, negative = inhibition",Potency
COc1ccc(-c2cc(C(=O)Nc3c(C)nn(Cc4ccccc4C)c3C)no2)cc1,inactive,,
NC(=O)c1ccc(-c2nc(-c3ccc4c(c3)OCCO4)c(-c3ccccn3)[nH]2)cc1,,inactive: 6.92%,
CCc1ccc(C(=O)c2cn(CC(=O)Nc3ccc(F)cc3)c3ccc(F)cc3c2=O)cc1,inactive,,
CCn1c(CNC(=O)c2ccc(OC)cc2)nnc1SCC(=O)Nc1ccc(F)cc1,,inactive: 3.82%,
CCOc1ccc(C2CC(=O)Nc3c2c(=O)[nH]c2ncnn32)cc1 (configuration not stated),inactive,,
Cc1cccc(C(=O)Nc2cc(-c3ccccc3F)nn2-c2ccccc2)c1,,inactive: -3.82%,
CCOC(=O)c1cc(S(=O)(=O)N2CCN(c3ccccc3OC)CC2)[nH]n1,,inactive: 2.88%,
COc1ccc(NC(=O)CSCc2cc(=O)c3cc(Cl)ccc3[nH]2)cc1,,inactive: -2.09%,
Cc1ccc(N2CC(NC(=O)C3CCCCC3)CC2=O)cc1 (configuration not stated),inactive,,
COc1ccc(NC(=O)C(C)N2Cc3ccccc3C2=O)cc1OC (configuration not stated),,inactive: -7.16%,
COc1ccc(C(C)=O)cc1CSc1nc(NCc2ccccc2)c2ccccc2n1,inactive,,
CC(CNC(=O)c1cc2cc(S(=O)(=O)N3CCCCC3)ccc2n1C)c1ccccc1 (configuration not stated),inactive,,
COc1ccccc1CNC(=O)c1ccc2c(c1)nc(C)n2-c1cccc(C)c1,,inactive: -14.1%,
Cc1ccc(CCNC(=O)c2sc3nc4n(c(=O)c3c2C)CCCC4)cc1,,inactive: -26.6%,
Cc1ccc2c(c1)-c1c(cnc3cc(-c4ccc(Cl)cc4)nn13)CO2,,inactive: 62%,
CC(C)CC(=O)n1nc(-c2ccco2)nc1NCc1ccc(Cl)cc1,,inactive: -8.33%,
CC(C)OC(=O)c1ccc(NC(=O)CSc2nc(-c3cccs3)cc(C(F)(F)F)n2)cc1,,inactive: -7.42%,
Cc1ccc(COC(=O)c2[nH]c3c(c2C)C(=O)CC(c2ccc(Cl)cc2)C3)cc1 (configuration not stated),,inactive: 0.0973%,
COc1ccccc1OC(C)C(=O)N1CCC(c2nc3ccccc3s2)CC1 (configuration not stated),,inactive: -2.84%,
COc1ccc(Cn2c(=O)c3ccccc3n3c(-c4ccc(C)cc4)nnc23)cc1,,inactive: 17.8%,
Cc1ccc(C)c(CN2C(=O)CSc3ccc(C(=O)NCc4ccccc4)cc32)c1,,inactive: -14.6%,
CCc1cccc(NC(=O)Cn2nc(C)c3sc4ccccc4c3c2=O)c1,,inactive: 6.97%,
COc1ccc(Cn2c(C(=O)O)c(CNCc3ccc(C)o3)c3ccc(OC)cc32)cc1,,inactive: -8.73%,
CCOc1ccc(NC(=O)c2ccc3nc(C(C)C)oc3c2)cc1,,inactive: -6.75%,
COc1cc(C(=O)Nc2c(C(=O)Nc3ccccc3F)oc3ccccc23)cc(OC)c1OC,inactive,,

Structure (SMILES),outcome,"activity change, negative = inhibition",Potency
Cc1ccc(C)c(NC(=O)Cn2cc(S(=O)(=O)NC(C)C)c(S(=O)(=O)NC(C)C)c2)c1,,inactive: -24.6%,
COc1ccc(NC(=O)c2cnc3sc(N4CCOCC4)nn3c2=O)c(OC)c1,,inactive: 4.26%,
Cc1ccc(OCc2cc(=O)n3cc(C)sc3n2)c(NC(=O)c2ccco2)c1,inactive,,
COc1ccc2c(c1)CC(NC(=O)Nc1ccc(Br)c(C)c1)CO2 (configuration not stated),,inactive: -5.42%,
CCC(=O)N1c2ccc(S(=O)(=O)CCC(=O)N3CCN(c4ccc(F)cc4)CC3)cc2CC1C (configuration not stated),inactive,,
O=C(Nc1cccc(NC(=O)c2ccc(Br)cc2)c1)c1ccccc1,,inactive: -10.1%,
CCCn1c(NCc2ccccc2F)nc2ccccc21,,inactive: 3.76%,
Cc1ccc(-c2nc(Cn3c(SCc4ccc(F)cc4)nc4cccnc43)c(C)o2)cc1,,inactive: -21.7%,
COc1ccc(C(=O)Nc2nonc2-c2ccc(OC)c(OC)c2)cc1Cl,,inactive: 9.73%,
CCOC(=O)N1CCc2c(sc(NCc3cccc(F)c3)c2C(=O)Nc2ccc(OCC)cc2)C1,inactive,,
CCCCCNC(=O)c1ccc2c(=O)n(CCc3ccccc3)c(=O)[nH]c2c1,,inactive: 8.62%,
CCN(C(=O)c1cccn(Cc2cccc(Cl)c2)c1=O)c1ccccc1,,inactive: -29.7%,
CCOC(=O)c1cc2c(=O)n3ccccc3nc2n(CC2CCCO2)c1=NC(=O)c1ccc(F)cc1 (configuration not stated),,inactive: 0.627%,
O=C(NCc1cccc(F)c1)c1ccc2nc(CCc3ccccc3)oc2c1,,inactive: -7.27%,
COc1ccc(-c2nnc(SCC(=O)Oc3cc(C)ccc3C)o2)cc1,,inactive: -7.65%,
Cc1ccc(N2CC(NC(=O)C3CCCC3)CC2=O)cc1C (configuration not stated),inactive,,
CC(C)Oc1ccc(CNC(=O)c2ccc3c(c2)N(C)C(=O)C2CCCCN32)cc1 (configuration not stated),,inactive: -5.76%,
COc1ccc(CNc2ncnc3c2c(-c2ccccc2)cn3-c2cccc(C)c2)cc1,,inactive: 2.15%,
CN[C@H]1[C@@H](O)[C@@H]2O[C@@H]3O[C@H](C)CC(=O)[C@]3(O)O[C@@H]2[C@@H](NC)[C@H]1O,,inactive: -26%,
CC(=O)c1ccc(S(=O)(=O)N2CCn3cccc3C2c2ccc(F)c(F)c2)cc1 (configuration not stated),,inactive: -8.08%,
CN(C)C(=O)C(CCN1CCC(O)(c2ccc(Cl)cc2)CC1)(c1ccccc1)c1ccccc1,,inactive: 13.6%,
CCc1cc(C(=O)NCc2ccc(F)cc2)no1,,inactive: 5.03%,
Cc1ccc(NC(=O)CSc2nc(C3CCCC3)nc3c2c(=O)n(C)c(=O)n3C)c(C)c1,,inactive: -4.09%,
O=C(CSc1nccn1-c1ccc(F)cc1)Nc1cccc2ccccc12,,inactive: 32.7%,
COc1ccc(C(=O)Nc2cc(NC(=O)c3ccco3)ccc2OC)cc1Cl,inactive,,

Structure (SMILES),outcome,"activity change, negative = inhibition",Potency
CCc1nnc(SCc2nc(-c3cccc(C)c3)oc2C)c2cc3sc(C)cc3n12,,inactive: -3.04%,
CCN1CCN(c2cc(C)c3cc(NC(=O)/C=C/c4ccc(OCCC(C)C)cc4)ccc3n2)CC1,,inactive: -21.2%,
COc1cccc(NC(=O)C2CCN(S(=O)(=O)c3c(C)noc3/C=C/c3cccs3)CC2)c1,,inactive: 4.45%,
CN1CCN(C2(CNC(=O)COc3ccc(C(C)(C)C)cc3)CCCCC2)CC1,inactive,,
Cc1ccc(Cl)cc1Nc1nn2c(=O)c3ccc(C(=O)NC4CCC(C)CC4)cc3nc2s1 (configuration not stated),,inactive: -9.45%,
O=C(Cn1c(=O)n(-c2ccc(F)c(Cl)c2)c(=O)c2sc3ccccc3c21)NC1CCCCC1,inactive,,
Cc1ccc(NC(=O)C2CCCN(S(=O)(=O)c3cccc4nsnc34)C2)c(C)c1 (configuration not stated),,inactive: 5.4%,
CCOc1ccc(C(=O)NCCc2csc(-c3cccnc3)n2)cc1,inactive,,
Cc1ccc(OCCCCn2nnc3sc4c(c3c2=O)CCC(C)C4)cc1 (configuration not stated),,inactive: 2.25%,
CCn1c(=N)c(C(=O)NC2CCCC2)cc2c(=O)n3cc(C)ccc3nc21,,inactive: -7.77%,
CCOC(=O)c1c(-c2ccccc2)oc2cc(Br)c(OCc3ccccc3)cc12,inactive,,
Cc1cc(C)cc(NC(=O)C2CCN(c3nc4ccccc4nc3C(F)(F)F)CC2)c1,inactive,,
CCOc1ccc(-n2nc3ccc(NC(=O)COc4ccccc4)cc3n2)cc1,,inactive: 10%,
CCC(C)S(=O)(=O)c1oc(-c2ccc(F)cc2)nc1S(=O)(=O)c1ccc(F)cc1 (configuration not stated),,,active: 3.55 µM
CCc1ccc(NC(=O)Cn2c(=O)n(CCC(=O)NCCc3ccc(OC)c(OC)c3)c(=O)c3ccccc32)cc1,,inactive: 14.9%,
COc1cc(C[C@@H](CO)[C@H](CO)Cc2ccc(O)c(OC)c2)ccc1O,,inactive: -16%,
CC(C)c1ccc(CNCCSc2nnnn2-c2ccccc2)cc1,,inactive: 5.52%,
CCNC(=O)C1CCCN(c2nn3cc(-c4ccc(C)cc4)nc3s2)C1 (configuration not stated),inactive,,
COc1ccc(NC(=O)CNC(=O)Cn2c(C)cc3ccccc3c2=O)cc1OC,inactive,,
O=C(Nc1sc2c(c1C(=O)N1CCCCC1)CCCC2)c1ccccc1Cl,,inactive: -9.83%,
Cc1noc(Cn2c(=O)c3cc4c(cc3n(CC(=O)Nc3ccccc3Br)c2=O)OCO4)n1,,inactive: -10.4%,
CCCCN1C(C(=O)c2ccccc2)=C(OC(C)=O)c2ccccc2S1(=O)=O,,inactive: -10.1%,
CN(C)c1ccc(CNC(=O)CCS(=O)(=O)c2ccc3c(c2)oc(=O)n3C)cc1,,inactive: 1.96%,
CCOc1cccc(C(=O)Nc2cc(-c3ccc(C)cc3)no2)c1,,inactive: -10.5%,
CCCCCCOc1ccc(C2C(=O)N(C3CCCCC3)CC(=O)N2CCCC)cc1 (configuration not stated),,inactive: 8.89%,

Structure (SMILES),outcome,"activity change, negative = inhibition",Potency
Cc1ccc2c(=O)cc(C(=O)Nc3sc4c(c3C(=O)NCc3ccccc3)CCCC4)oc2c1C,inactive,,
O=C(CN1C(=O)CCc2cc(S(=O)(=O)N3CCOCC3)ccc21)Nc1cccc(C(F)(F)F)c1,inactive,,
CCCCN(CCCC)C1=C(C(=O)c2ccccc2)N(C)S(=O)(=O)c2ccccc21,,inactive: -4.18%,
Cc1ccccc1CNC(=O)CN(c1cccc(C)c1C)S(C)(=O)=O,,inactive: 1.43%,
CCCS(=O)(=O)N1CCCC(C(=O)NCCOC)C1 (configuration not stated),,inactive: 20.1%,
Cc1ccccc1Nc1cc(C(=O)NCc2cccs2)c2ccccc2n1,,inactive: 4.52%,
COc1ccccc1/C=C/c1nc(C#N)c(NCCc2ccccc2)o1,inactive,,
CCOc1ccc(-c2nc(Cn3ccn4nc(-c5ccc(OCC)c(Cl)c5)cc4c3=O)c(C)o2)cc1,inactive,,
Cc1cc(=O)n2nc(N3CCC(C(=O)NCc4ccc(F)cc4)CC3)sc2n1,inactive,,
C=C(C)Cn1c(=O)c2c(nc3n2CCN3c2ccc(F)cc2)n(C)c1=O,,inactive: 34.4%,
CCOc1ccc(NCc2cccn2-c2nnc(N3CCC(C(=O)NCCOC)CC3)s2)cc1,,inactive: 33.7%,
COc1ccc(Nc2ncc(C(=O)N3CCN(c4ccc(F)cc4)CC3)c3ccccc23)cc1,inactive,,
Cc1cccc(OCCn2c(SCC(=O)O)nc3ccccc32)c1,,inactive: 3.93%,
CCOc1ccc(N(CC)S(=O)(=O)N2CCCC(C(=O)Nc3cc(Cl)ccc3OC)C2)cc1 (configuration not stated),,inactive: 0.812%,
COc1ccc(CNS(=O)(=O)c2ccc(-c3cnc(C4CC4)o3)cc2)cc1,inactive,,
COc1ccc(C)cc1N(C)C(=O)c1c2c(nc3ccccc13)C(=O)N(C1CCCCC1)C2,inactive,,
COc1cc2nc(SCC(=O)Nc3ccccc3F)n3nc(-c4ccccc4)nc3c2cc1OC,inactive,,
CCOC(=O)c1ccc(NC2SC(=O)N(Cc3cccc(C(=O)O)c3)C2=O)cc1 (configuration not stated),,inactive: -7.04%,
COc1ccc(-c2nc3scc(CCNS(=O)(=O)c4ccc(NC(C)=O)cc4)n3n2)cc1,inactive,,
Cc1ccc(CNC(=O)c2ccc(CSCc3ccccc3C)o2)cc1,,inactive: 1.71%,
COc1ccccc1C(=O)N1CCN(Cc2cc(=O)oc3cc(C)ccc23)CC1,inactive,,
CCc1ccc(NC(=O)CSc2nc3c(sc4ccccc43)c(=O)n2CCCOC(C)C)cc1,inactive,,
